The whole screen tested about 310,000 compounds, of which about 14,000 (4.5%) showed an effect of 50% or more. The effect is printed as a negative number. Some of the results follow.
What follows are compounds tested against human ether-à-go-go-related gene (hERG) potassium channel (human, UniProt Q12809) (assay: primary screen, population patch clamp on CHO cells stably expressing hERG).
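Note: peak tail current of the secondary pulse compared with the same well before compound.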

human ether-à-go-go-related gene (hERG) potassium channel, sequence (Q12809 whole entry, looked up): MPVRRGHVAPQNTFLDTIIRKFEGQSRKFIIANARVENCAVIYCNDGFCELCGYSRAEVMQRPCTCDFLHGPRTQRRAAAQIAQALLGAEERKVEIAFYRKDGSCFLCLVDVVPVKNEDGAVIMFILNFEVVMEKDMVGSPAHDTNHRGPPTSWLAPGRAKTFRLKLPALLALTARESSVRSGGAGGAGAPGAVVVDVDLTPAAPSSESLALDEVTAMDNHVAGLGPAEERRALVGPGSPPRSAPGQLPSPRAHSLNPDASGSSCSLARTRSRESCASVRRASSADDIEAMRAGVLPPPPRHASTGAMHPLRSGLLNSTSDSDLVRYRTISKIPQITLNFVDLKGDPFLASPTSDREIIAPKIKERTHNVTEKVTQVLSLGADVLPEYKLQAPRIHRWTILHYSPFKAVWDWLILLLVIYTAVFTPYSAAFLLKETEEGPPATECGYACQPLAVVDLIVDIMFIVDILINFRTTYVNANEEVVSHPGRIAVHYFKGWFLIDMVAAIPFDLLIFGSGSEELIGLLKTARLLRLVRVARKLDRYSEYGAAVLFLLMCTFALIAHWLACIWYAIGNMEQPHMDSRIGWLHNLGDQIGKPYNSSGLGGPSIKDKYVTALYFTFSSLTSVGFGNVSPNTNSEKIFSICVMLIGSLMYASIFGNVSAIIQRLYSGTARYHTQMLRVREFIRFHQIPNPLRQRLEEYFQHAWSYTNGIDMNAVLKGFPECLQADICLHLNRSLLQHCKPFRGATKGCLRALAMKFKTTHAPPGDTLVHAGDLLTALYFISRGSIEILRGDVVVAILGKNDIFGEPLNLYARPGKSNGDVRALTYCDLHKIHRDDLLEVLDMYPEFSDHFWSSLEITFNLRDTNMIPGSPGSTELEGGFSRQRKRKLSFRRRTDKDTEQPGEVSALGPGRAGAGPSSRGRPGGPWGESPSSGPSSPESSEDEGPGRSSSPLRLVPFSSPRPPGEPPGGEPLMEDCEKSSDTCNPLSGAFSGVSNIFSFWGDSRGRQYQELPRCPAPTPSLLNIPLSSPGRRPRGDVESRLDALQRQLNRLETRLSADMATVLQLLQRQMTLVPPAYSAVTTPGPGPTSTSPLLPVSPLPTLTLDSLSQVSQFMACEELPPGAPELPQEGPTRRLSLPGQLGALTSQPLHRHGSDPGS

SMILES	hERG current change (%, negative = inhibition) at 10uM
O=C(NCc1ccccc1)C(c1ccccc1)N(C(=O)c1csnn1)c1ccccc1 (stereo not drawn)	13.2%
COc1ccc2oc(=O)c(C(=O)N3CCc4ccccc43)cc2c1	15.8%
Cc1c(C(O)CN2CCN(Cc3ccc4c(c3)OCO4)CC2)c2ccccc2n1C (stereo not drawn)	-75.6%
COC(=O)CSc1nnc(C)n1-c1cccc(OC)c1	4.54%
NC(=O)c1ccsc1NC(=O)c1ccc2c(c1)CCCC2	1.38%
O=C(NC1CCCCCC1)C1CCN(S(=O)(=O)N2CCC3(CC2)OCCO3)CC1	7.74%
CCOC(=O)c1nsnc1NCCCl	11.5%
O=S(=O)(c1ccc(OCC(O)CN2CCC(Cc3ccccc3)CC2)cc1)N1CCOCC1 (stereo not drawn)	-44.4%
CCN(CC)S(=O)(=O)c1ccc(N2CCOCC2)c(NCC(=O)Nc2ccc(F)cc2)c1	12.3%
CSCCC(NS(=O)(=O)c1ccc(C)cc1)C(=O)N1CCCC1 (stereo not drawn)	2%
CCn1cc(CNC(=O)/C=C/c2ccc([N+](=O)[O-])cc2)c(C)n1	-33%
O=C(c1ccc2c(c1)N(Cc1ccccc1)C(=O)CS2)N1CCOCC1	-8.02%
C#CCOCCOCCOCCNc1nc(N2CCN(C(=O)[C@H](Cc3cc4ccccc4[nH]3)n3cc(C(N)CC(C)C)nn3)CC2)nc(N2CCN(C(=O)[C@H](CCC(=O)O)n3cc(C(N)[C@H](C)CC)nn3)CC2)n1.Cl (stereo partly drawn)	8.79%
O=C(NC(=S)NC1CCS(=O)(=O)C1)c1cccs1 (stereo not drawn)	8.22%
CCOCCCNC(=O)C(NC(=O)CNC(=O)c1ccccc1)c1ccccc1 (stereo not drawn)	21.9%
CN(C)C(=O)CSc1cnc2ccccc2n1	5.74%
CCC1COC(c2cccn2Cc2ccc(Cl)cc2)=N1 (stereo not drawn)	-5.09%
O=C(CN(Cc1ccccc1)S(=O)(=O)c1ccccc1)N/N=C/c1ccccc1[N+](=O)[O-]	-12.5%
CN(C)CCn1c(=S)[nH]c2ccccc2c1=O	5.8%
O=C(CNC(=S)N(Cc1ccccc1F)C1CCCCC1)NC1CC1	-4.74%
COc1ccc(N2CCN(C(=O)c3cc(=O)c4cc(C)ccc4o3)CC2)cc1	-38.1%
CC(C)CNS(=O)(=O)c1cc(C(=O)OCC(=O)c2ccc3c(c2)OCCO3)c(Cl)cc1Cl	21%

SMILES	hERG current change (%, negative = inhibition) at 10uM
COc1ccc(C2C(C(=O)N3CCN(c4ccccc4)CC3)c3ccccc3C(=O)N2C)cc1OC (stereo not drawn)	-15.7%
CCN(CC)CCNC(=O)c1ccc(NC(=O)/C=C/c2cc(OC)c(OC)c(OC)c2)cc1.Cl	9.84%
CCOC(=O)CSc1nc2cc(C)cc(C)c2cc1C#N	14.1%
COc1ccc(NC(=O)C2(c3ccc(NC(=O)c4ccc(OC)c(OC)c4)cc3)CCCC2)cc1	-4.76%
CC1CCC(NC(=O)c2ccc(-n3cncn3)c([N+](=O)[O-])c2)CC1 (stereo not drawn)	-17.6%
CC(C)(C)C(=O)Nc1sc2c(c1C#N)CCN(Cc1ccccc1)C2.Cl	1.78%
CCc1cccc(OCCCn2ccnc2)c1.O=C(O)C(=O)O	-25.7%
CCn1cc(C2=NC(C)CO2)c2ccccc21 (stereo not drawn)	-10.1%
CCCCCCc1nc2ccccc2c(=O)n1NC(=O)c1c(O)c2c(n(CC(C)C)c1=O)CCCC2	9.82%
CN(CC(=O)Nc1ccc(Cl)c(C(F)(F)F)c1)C(=O)c1ccc(OCC2CCCO2)cc1 (stereo not drawn)	-4.78%
O=C(O)c1ccc(-c2nc(-c3ccccc3Cl)cs2)cc1	17.6%
O=C(NCc1ccc2c(c1)CCO2)Nc1cccc(C(F)(F)F)c1	12.6%
Cc1cc(C)c(C#N)c(SC(C(=O)NC(C)(C)C)c2ccccc2)n1 (stereo not drawn)	7.75%
CN(C)C(=O)c1cc(C(=O)c2ccc(F)cc2Cl)c[nH]1	11.4%
CCOc1ccc(NC(=O)CN2C(=O)COc3ccc(S(=O)(=O)N4CCCCC4)cc32)cc1	6.34%
COC(=O)c1sc2ccc(C)cc2c1C(=O)OC	1.79%
CCOC(=O)c1c(C)[nH]c(C(=O)CSc2nc(C)cc(C)n2)c1C	12.3%
O=C(NC1CCCc2ccccc21)c1ccc(=O)[nH]c1 (stereo not drawn)	-4.97%
CC(C)C(=O)N=C1SC2CS(=O)(=O)CC2N1Cc1ccccc1 (stereo not drawn)	2.66%
CCC(=O)NCCc1nc2cc(NC(=O)c3ccccc3OC)ccc2n1C	4.58%
O=[N+]([O-])c1cccnc1Sc1ccc(F)cc1	-19.4%
O=C(CSC1=Nc2ccccc2C2=NC(c3ccccc3)C(=O)N12)NCC1CCCO1 (stereo not drawn)	-24.3%

SMILES	hERG current change (%, negative = inhibition) at 10uM
CCOC(=O)C(Cc1cc(C(C)=O)ccc1OCC)C(=O)OCC	-6.67%
CC1CC(=O)C(C2c3ccccc3CCN2C(=O)CCl)C(=O)C1 (stereo not drawn)	2.58%
CCOc1ccc(CCNC(=O)COC(=O)COc2ccc(C#N)cc2)cc1OCC	-10.5%
CCOc1ccccc1C(=O)OCC(=O)Nc1cc(S(=O)(=O)N2CCOCC2)ccc1C	-15.1%
O=C(COC(=O)c1ccc2c(=O)n3c(nc2c1)CCC3)NC1CCS(=O)(=O)C1 (stereo not drawn)	3.16%
O=C(N/C(=C\c1cn(-c2ccccc2)nc1-c1ccc(Cl)cc1)C(=O)N1CCOCC1)c1ccccc1	5.42%
Cc1c(Cl)cccc1NC(=O)CCCN1C(=O)CCC1=O	19.7%
Cc1ccc(NC(=O)N2CCCC2C(=O)NCc2ccccc2Cl)cc1 (stereo not drawn)	11.7%
CC(=O)Nc1ccc2nc(CN3CCN(Cc4ccc(F)cc4)C(CCO)C3)ccc2c1 (stereo not drawn)	-28.8%
Cc1cccc2cccnc12	11.6%
CCCN1C(=O)c2ccccc2NC1c1ccc(Br)cc1 (stereo not drawn)	-18.1%
COCCCNC(=O)c1c(N)n(-c2ccc3c(c2)OCO3)c2nc3ccccc3nc12	9.77%
CC1C(=O)Nc2ccc(S(=O)(=O)N3CCN(c4cccc(Cl)c4)CC3)cc2NC1=O (stereo not drawn)	-21.8%
CCCN(CCC)CC(O)CN(c1ccccc1)S(=O)(=O)c1ccc(C)cc1 (stereo not drawn)	-80.3%
CC(=O)Nc1ccc(S(=O)(=O)NNC(=O)COc2ccc(C)cc2)cc1	8.04%
Cc1cc(C)cc(C(=O)NCC(=O)OCC(=O)Nc2ccc(C)cc2Br)c1	-17.2%
CN(Cc1ccccc1)C(=O)COC(=O)CCNC(=O)c1ccccc1Cl	0.088%
Cc1ccc(C)c(N2CCN(C(=O)Cn3c(=O)oc4cc(S(=O)(=O)N5CCCC5)ccc43)CC2)c1	-15%
O=C(c1cccc2ccccc12)C1CCCN(C(=O)CCCn2cncn2)C1 (stereo not drawn)	-20.1%
CCCC1CCC(c2ccc(OCC)cc2)=CC1=O (stereo not drawn)	11.8%
CCCc1cc(=O)[nH]c(SCC(=O)c2ccc3c(c2)OCCO3)n1	-9.13%
COc1ccc(CNC(=O)c2noc3c2CCCCC3)cc1	-11.6%

SMILES	hERG current change (%, negative = inhibition) at 10uM
Cc1ccc2[nH]c(=O)c(CN(Cc3cccnc3)Cc3nnnn3CCN3CCOCC3)cc2c1	-0.407%
COc1ccccc1OCCCCN1CCN(c2ccccc2OC)CC1.O=C(O)C(=O)O	-43.1%
O=C(Nc1ccc2nc(-c3ccccc3)[nH]c2c1)c1ccco1	-30.8%
O=P(Cc1ccccn1)(c1ccccc1)c1ccccc1	7.79%
COc1cccc(OC)c1C(=O)Nc1ccc(S(=O)(=O)N2CCCCC2)cc1	8.72%
O=C1NCCC12C(=O)Nc1ccccc12 (stereo not drawn)	23.4%
COC(=O)c1ccc(Oc2cc(C)nc(Cl)n2)cc1	13.9%
O=C1C(Cl)=C(N2CCN(c3ccccc3[N+](=O)[O-])CC2)C(=O)c2ccccc21	-19.8%
Cc1cccc2cc(CN(Cc3ccc(F)cc3)C(=O)N(C)C)c3nnnn3c12	-41.4%
Br.O=C(O)Cc1sc(N/N=C\c2ccncc2)nc1-c1ccccc1	7.53%
O=C(Cc1ccccc1Cl)NCCCn1ccnc1	5.85%
Nc1nc(SCCO)[nH]c(=O)c1NC(=O)c1ccc(Br)o1	23.8%
COc1ccc(/C(C)=N/NC(=O)c2sccc2-n2cccc2)cc1	19%
COc1ccc(C(=O)NC(C(=O)NCc2ccccn2)C(C)C)cc1 (stereo not drawn)	11.1%
CN(C)C=NC(=O)c1[nH]c2ccc(Cl)cc2c1-c1ccccc1	18.3%
COc1ccc(OC)c(CN2CCCC(C(=O)c3ccccc3SC)C2)c1 (stereo not drawn)	-75.9%
CN(C)/C=N/c1nccc(-c2cccs2)n1	16.8%
CCCCC(=O)OCC(=O)c1[nH]c(C)c(C(C)=O)c1C	-2.36%
CCOC(=O)c1nc2c(ccc3ccccc32)cc1C	8.86%
CCC1CCCCN1CCCNC(=O)C1CCN(S(=O)(=O)N2CCC3(CC2)OCCO3)CC1 (stereo not drawn)	18.8%
C/C(=N/NC(=O)CN1CCN(Cc2ccccc2Cl)CC1)c1cccnc1	-10.4%

Source: paper PMC4336329 (PLoS ONE, 2015)
